Laboratory results from paper PMC6212790.
The list shows a part of the results. At the low end of the ranking the order means little.

What follows are sequences tested against T1, GST-Rok (full length) (UniProt O34857) (assay: protein binding microarray). Conditions: Rok is a gene silencer of Bacillus subtilis; high values mean tight binding; most listed sequences are background and not binding sites; double strand, one strand shown.
T1 sequence: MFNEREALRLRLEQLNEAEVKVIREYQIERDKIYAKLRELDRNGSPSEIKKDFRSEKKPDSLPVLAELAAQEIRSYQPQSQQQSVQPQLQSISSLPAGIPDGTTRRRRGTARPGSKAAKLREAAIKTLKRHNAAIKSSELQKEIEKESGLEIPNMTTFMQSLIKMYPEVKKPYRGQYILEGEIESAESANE
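Further: rank score from −0.5 (least bound) to 0.5 (best bound).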

Sequence	binding signal [E-score]
AGTAGTGC	0.0725
ATTATCAG	0.232
GCACAACA	0.0536
GAGAACGC	0.0327
AATAATCG	0.045
CTTTTACC	0.12
GTTCAGGA	0.027
CGCATAGA	-0.069
CCGGGTCC	-0.279
AGGCTGAA	-0.255
GGCCTTGA	-0.327
ACTAAGTA	0.281
TCGCAGAA	-0.163
AAGTGTTA	0.148
CTACCGGC	-0.0205
CTGGTCCC	-0.277
CTAACGAC	-0.103
ACGTCTCT	-0.156
AATCGTCC	0.0103
ACGCTCGA	-0.142
AAGCAAAT	0.062
AGCCGCAT	-0.147
AGATACGG	-0.0193
AGGACCCG	-0.222
CGAATAGC	-0.144

Sequence	binding signal [E-score]
GGTTGGGA	-0.1
TCGAGAAA	0.135
CCTTTATC	0.0298
ACTTGACC	-0.14
GCGAATAA	0.113
TCCCTAAA	-0.167
CATTTACA	0.308
CACTCGGC	-0.249
CAAAGTAG	0.148
GACCCATC	-0.147
ATCGACAC	0.0552
TAGTATCA	0.199
GGACAAGA	-0.158
ACTGAGTG	0.0531
GAGTCTGA	-0.0421
CACCCTCA	-0.147
CGACACAA	-0.18
CTGCAGAA	-0.0349
ACTAATCC	0.178
ACGGCACA	0.173
GGTAAATA	0.299
GACCCCAA	-0.366
CATAAAGA	0.0223
TTCGAGAA	0.0693
AGGATATA	0.287

Sequence	binding signal [E-score]
CTCACTTA	-0.116
ATTAAGGC	-0.00296
GTGAAGAA	0.0156
AAAAGTCG	-0.0454
AATAAATC	0.233
CTAGCCAG	-0.0869
CATGAAGG	-0.159
AAGGAATG	-0.221
CTCGCATA	-0.0555
GCCATAAC	0.0281
GATGAAGC	-0.0121
GAACCTTC	-0.202
AACCGGTG	-0.223
ATCCCCTC	-0.361
CCGCTGGC	-0.251
AGCTACGA	0.163
ATTGTTTA	-0.087
ACGCAAAC	0.106
AATTACGT	0.303
CGGTTGAC	-0.154
AATCCGCC	-0.211
GGTCTGCA	-0.196
CTTTGCTA	0.163
CGCCGACG	-0.0281
AAGGCTGC	-0.224

Sequence	binding signal [E-score]
ACATCGAT	0.166
AATTGGTA	0.339
CCAGGCCA	-0.255
AGCTAGTG	0.229
TCACAAAA	-0.0579
GCCGTTAC	0.14
GCCGTTCA	-0.0857
CGCTCTGC	-0.209
CTCACTCA	0.0449
TACGCCAA	0.0298
ATAACTAG	0.243
CCGGCCAA	-0.257
GTCCGCTA	-0.189
AGCGCGTG	-0.0994
TGAGCCCA	-0.203
ATACGAAT	0.172
CTGGTCAC	-0.281
ACAGGGTA	-0.00656
CCTCAAAG	-0.166
GAGGTCGC	-0.279
ACAGTCGT	-0.0214
CTGTTCAC	0.0251
CGGACGCC	-0.313
ATTTTCAG	0.104
GATTTCGA	0.183

Sequence	binding signal [E-score]
CACGCCAC	-0.225
TCATAAAA	0.194
CATCTATC	0.289
ATCGATGC	0.165
CTGGCCAG	-0.266
TCAGTTAA	0.221
CCTATATC	0.00873
GATATCTA	0.4
GATGACAA	0.124
GAGCGAAA	-0.0169
CCTCGTAC	-0.194
ACGACAAA	0.0714
GCATGGGC	-0.196
CGTCAACC	-0.18
CTACGGAC	-1.04e-05
CCATGTAA	0.217
CCAAAGGG	-0.318
ACTAAGCG	-0.228
ATAAAACG	0.0497
TATAGGCA	0.157
GGCAGATA	-0.0284
CCTGGGAC	-0.26
AGATTATG	0.103
AACACTGG	-0.173
AGATATAC	0.238

Sequence	binding signal [E-score]
CGAAGTAG	0.179
CTCGAAGC	-0.306
ATTGATTC	0.127
ATCAAATA	0.262
GGCCTAAA	-0.0996
TCCCGCCA	-0.156
ATTCTTCG	0.166
ACATGCAC	0.141
CTCGACGA	-0.125
GGTGCGTA	-0.109
CTAAGAAC	-0.101
AGATCAGC	-0.0777
AATGCATG	-0.0198
ATCGAAGA	-0.0316
AATCTGGG	0.013
GAGGCCGA	-0.352
AGACAGCA	-0.138
ATATAAAC	0.262
ATACTCGA	0.176
AGACATGA	-0.0138
GCATAGCC	-0.0878
AGTCGGTA	0.187
AGGCGGGG	-0.296
AAGTTCGA	0.213
AATGTATC	0.224

Sequence	binding signal [E-score]
TATGACGA	0.139
CTAATGTC	0.0193
ATCTTCGC	-0.0637
CTCCTAGA	-0.0961
AGAAACAC	-0.0933
AAGATTGT	0.0761
CTCGCTAA	-0.0951
ATCTAATC	0.351
AGAGCCGC	-0.305
CAAGTACC	0.081
CAGCAGCC	-0.345
AGGGCAGC	-0.405
GAGTTCCC	-0.109
TAAAACTA	0.375
GGCTTCAC	-0.305
CCTGGCTC	-0.272
GGTATTTA	0.356
GCTAATAC	0.244
ACGGTATG	0.0718
GTGCTTAA	-0.0199
ATAGCAAA	0.187
GCATCAGC	-0.115
GCCAATTA	-0.0326
CACATACC	0.172
AAATAAAG	0.126

Sequence	binding signal [E-score]
CAACTTGA	-0.101
CGTCTGCC	-0.361
CTGGCACC	-0.218
GGCAGGAA	0.059
CGATTCTC	0.123
ATATATCG	0.381
AAGCTCGT	-0.333
CATCCCCG	-0.144
AGTTTAAT	0.208
CTAAGCAC	-0.0167
CACACGGC	-0.092
AAATGGTA	0.274
GAGACAAC	-0.128
AAAGATTG	0.0428
CCACCTGA	-0.253
GATTTCAA	-0.0853
AACAACTC	0.0513
CCCGAGGC	-0.324
CCATTCGC	-0.137
AACACGAA	0.0286
ACGCTTGA	-0.0199
AACTTATA	0.403
CCAATGGG	-0.118
ATGCTTGC	-0.246
CTCTAACC	-0.055

Sequence	binding signal [E-score]
CTGCTTGA	0.00245
TAACGGCA	-0.0579
ATTCACAC	0.148
ACCTCAAT	0.0786
AGAACTAT	0.381
AATTACGC	0.211
AAAAAACC	0.125
ATAGCAAC	0.224
CATCGACC	-0.0646
GGGTATAA	0.205
CCGGTGCC	-0.257
ATTTCAGA	0.192
CTCACGCC	-0.28
AATATAAG	0.275
CCCTTGCG	-0.348
AGCGCGGA	-0.184
CACGCAAA	-0.106
CATTGACC	0.0269
CGAGCAGC	-0.106
ATTTTATC	0.312
ACGGACAC	-0.126
GAGACATC	0.00331
ATGCCTTA	0.0864
ATGACTTG	-0.0121
TAGGGAAA	0.0583

Sequence	binding signal [E-score]
CGAAAATA	0.244
AAGCTCAT	0.128
ATCTGGGC	-0.0839
ATTACTAG	0.398
ACGTTAAT	0.171
ATACGTAC	0.312
ATTCTAAC	0.0638
ATTAGTGA	0.192
GCACAGGC	-0.229
AGGGGGCG	-0.332
ACTTGGGA	-0.0812
CGTCTCTC	-0.199
CAACAACA	0.0149
AGTAATCG	0.0386
GTACGCGA	0.136
GAAACTTC	0.224
AACCCGCA	-0.126
ATCACTAG	0.208
CGGTGCGC	-0.341
ATAAGATA	0.317
ACTTCGAC	0.022
AGGGACCA	-0.203
ATTCTTAG	0.165
GATAAAAC	0.232
AGGTTACC	-0.0392

Sequence	binding signal [E-score]
AAAAAGGA	0.0196
CGAGCTAG	0.0183
CTCACTAC	0.0506
GCGATAGA	0.147
AACGTAGA	0.17
GGCCGTGA	-0.193
GGACGTAC	0.148
AGCGAGAT	-0.0459
CTTAACGC	-0.115
GCAGACTA	0.182
AACAAGAG	-0.0498
CAATGTTA	0.168
AACGACTA	-0.0589
CTATAGCA	0.248
GGCAGACA	0.189
ACAACACG	0.119
GCTTGGTA	-0.113
CTAAAGTC	-0.015
ACGAGTAA	0.032
GTGAGCCA	-0.191
CGGCGGAG	-0.273
TGGGAGAA	-0.0223
CGAATGTA	0.266
GGCAATCA	-0.201
AGGACAAA	-0.101

Sequence	binding signal [E-score]
GTTCTGGA	0.103
CAATATCA	0.183
CGCAGACA	-0.162
TACCAATA	0.298
CGCCCCGC	-0.303
CGTGGCTA	-0.0463
ATCAGGCG	-0.0124
TAATAAGA	0.313
TACTGATA	0.21
GATCGGTA	0.191
GAAGAGCA	-0.0453
ATCGGTAG	0.112
CACCCGGA	-0.283
CGAAGTCG	-0.202
TATCCGAA	0.168
CACAGACA	-0.127
ATGTGCGC	0.0412
CCCAGCGC	-0.157
AACTCCGT	-0.0118
GAGTAGCC	-0.281
CCTGGCGA	-0.199
AATAACGT	0.171
ACTACATC	0.313
GTACAGCA	0.182
TCTGAACA	-0.114

Sequence	binding signal [E-score]
GCAAAGCC	-0.258
AGCGTTTC	-0.165
CGGTAAGC	0.0366
GAAATGTC	0.126
CGGATAGA	0.159
AACGAAAA	-0.131
AGCACCAT	-0.194
CGAGGGGC	-0.323
CTCAAGTC	-0.0485
ACTACATG	0.318
ACAGCTTC	-0.106
CATAGTTA	0.244
GCGTTACA	-0.00982
ATAGATAG	0.34
ATAGTTGG	0.0271
ACAGCCTG	-0.158
ACAGCAAA	0.0227
ACTAGACT	-0.0178
ATAGAAGA	0.193
CCACGTGC	-0.341
GTAACAAC	0.184
AATCTGGA	-0.0405
CAGAAACC	-0.0891
TGGAGGAA	-0.24
CGGTTTTA	-0.0298

Sequence	binding signal [E-score]
ACCACTGC	-0.117
CCACAGGC	-0.15
CTTGGAGA	-0.0489
AGTAAGTC	0.21
ACATTACA	0.24
AGTGTCAG	-0.0514
CTATTGAG	0.168
GATAGACA	-0.0476
CCCGGGCA	-0.34
ACCCGGGG	-0.283
AATTAACT	0.281
GAATAGTA	0.285
TCAACCGA	-0.14
CAGCGGAC	0.00328
ATTTCGTC	-0.0446
AGATGTCG	-0.231
ACAATTCT	0.149
AATTTTGA	0.198
GACGATGC	-0.106
